Laboratory results from patent publication US11178870B2 (priority 2017, dated 2021).

Legend:
Magnaporthe grisea = type: in vivo; conditions: class of control value, Table 7
[1] = test system: Colletotrichum orbiculare; conditions: 250 ppm spray, 2.5 ml/pot; investigated 6 to 10 days after inoculation
Phytophthora infestans = type: in vivo; conditions: class of control value, Table 7

## CCn1c(-c2c(F)cccc2F)c(-c2sc(Br)cc2C)cc(Br)c1=O [Compound 388]
Magnaporthe grisea
  Test A control value (blast on rice): H (H shows the control value more than 50%)
[1]
  Test H control value (anthracnose on cucumber): L (L shows the control value of 50% or less)
Phytophthora infestans
  Test F control value (late blight on tomato): L (L shows the control value of 50% or less)

## CCn1c(-c2c(F)cccc2F)c(-c2sccc2C)cc(Br)c1=O [Compound 389]
Magnaporthe grisea
  Test A control value (blast on rice): H (H shows the control value more than 50%)
[1]
  Test H control value (anthracnose on cucumber): H (H shows the control value more than 50%)
Phytophthora infestans
  Test F control value (late blight on tomato): L (L shows the control value of 50% or less)

## CCn1c(-c2c(F)cccc2F)c(-c2ccsc2C)cc(Cl)c1=O [Compound 390]
Magnaporthe grisea
  Test A control value (blast on rice): H (H shows the control value more than 50%)
[1]
  Test H control value (anthracnose on cucumber): L (L shows the control value of 50% or less)
Phytophthora infestans
  Test F control value (late blight on tomato): L (L shows the control value of 50% or less)

## CCn1c(-c2c(F)cccc2Br)c(-n2cc(F)cn2)cc(Cl)c1=O [Compound 391]
Magnaporthe grisea
  Test A control value (blast on rice): H (H shows the control value more than 50%)
[1]
  Test H control value (anthracnose on cucumber): L (L shows the control value of 50% or less)
Phytophthora infestans
  Test F control value (late blight on tomato): H (H shows the control value more than 50%)

## CCn1c(-c2c(F)cccc2Br)c(-n2cc(F)cn2)cc(Br)c1=O [Compound 392]
Magnaporthe grisea
  Test A control value (blast on rice): H (H shows the control value more than 50%)
[1]
  Test H control value (anthracnose on cucumber): L (L shows the control value of 50% or less)
Phytophthora infestans
  Test F control value (late blight on tomato): H (H shows the control value more than 50%)

## CCn1c(-c2c(F)cccc2F)c(-c2sccc2Cl)ccc1=O [Compound 393]
Magnaporthe grisea
  Test A control value (blast on rice): H (H shows the control value more than 50%)
[1]
  Test H control value (anthracnose on cucumber): H (H shows the control value more than 50%)
Phytophthora infestans
  Test F control value (late blight on tomato): H (H shows the control value more than 50%)

## O=c1ccc(-c2sccc2Cl)c(-c2c(F)cccc2F)n1CC(F)F [Compound 394]
Magnaporthe grisea
  Test A control value (blast on rice): H (H shows the control value more than 50%)
[1]
  Test H control value (anthracnose on cucumber): H (H shows the control value more than 50%)
Phytophthora infestans
  Test F control value (late blight on tomato): H (H shows the control value more than 50%)

## CCn1c(-c2c(F)cccc2F)c(-c2sccc2Cl)cc(Cl)c1=O [Compound 395]
Magnaporthe grisea
  Test A control value (blast on rice): H (H shows the control value more than 50%)
[1]
  Test H control value (anthracnose on cucumber): H (H shows the control value more than 50%)
Phytophthora infestans
  Test F control value (late blight on tomato): L (L shows the control value of 50% or less)

## CCn1c(-c2c(F)cccc2F)c(-c2sc(Cl)cc2Cl)cc(Cl)c1=O [Compound 396]
Magnaporthe grisea
  Test A control value (blast on rice): H (H shows the control value more than 50%)
[1]
  Test H control value (anthracnose on cucumber): L (L shows the control value of 50% or less)
Phytophthora infestans
  Test F control value (late blight on tomato): L (L shows the control value of 50% or less)

## CCn1c(-c2c(F)cccc2F)c(-c2sccc2Cl)cc(Br)c1=O [Compound 397]
Magnaporthe grisea
  Test A control value (blast on rice): H (H shows the control value more than 50%)
[1]
  Test H control value (anthracnose on cucumber): H (H shows the control value more than 50%)
Phytophthora infestans
  Test F control value (late blight on tomato): L (L shows the control value of 50% or less)

## CCn1c(-c2c(F)cccc2F)c(-c2sc(Br)cc2Cl)cc(Br)c1=O [Compound 398]
Magnaporthe grisea
  Test A control value (blast on rice): H (H shows the control value more than 50%)
[1]
  Test H control value (anthracnose on cucumber): H (H shows the control value more than 50%)
Phytophthora infestans
  Test F control value (late blight on tomato): L (L shows the control value of 50% or less)

## Nn1c(-c2c(F)cccc2F)c(-c2ccsc2Cl)cc(Br)c1=O [Compound 399]
Magnaporthe grisea
  Test A control value (blast on rice): L (L shows the control value of 50% or less)
[1]
  Test H control value (anthracnose on cucumber): L (L shows the control value of 50% or less)
Phytophthora infestans
  Test F control value (late blight on tomato): L (L shows the control value of 50% or less)

## O=c1c(Br)cc(-c2cc(Br)sc2Cl)c(-c2c(F)cccc2F)n1CC(F)F [Compound 400]
Magnaporthe grisea
  Test A control value (blast on rice): H (H shows the control value more than 50%)
[1]
  Test H control value (anthracnose on cucumber): L (L shows the control value of 50% or less)
Phytophthora infestans
  Test F control value (late blight on tomato): L (L shows the control value of 50% or less)

## O=c1ccc(-c2cc(Br)sc2Cl)c(-c2c(F)cccc2F)n1CC(F)F [Compound 401]
Magnaporthe grisea
  Test A control value (blast on rice): L (L shows the control value of 50% or less)
[1]
  Test H control value (anthracnose on cucumber): L (L shows the control value of 50% or less)
Phytophthora infestans
  Test F control value (late blight on tomato): L (L shows the control value of 50% or less)

## O=c1c(Br)cc(-c2ccsc2Cl)c(-c2c(F)cccc2F)n1CC(F)F [Compound 402]
Magnaporthe grisea
  Test A control value (blast on rice): H (H shows the control value more than 50%)
[1]
  Test H control value (anthracnose on cucumber): L (L shows the control value of 50% or less)
Phytophthora infestans
  Test F control value (late blight on tomato): L (L shows the control value of 50% or less)

## O=c1c(Cl)cc(-c2cc(Br)sc2Cl)c(-c2c(F)cccc2F)n1CC(F)F [Compound 403]
Magnaporthe grisea
  Test A control value (blast on rice): H (H shows the control value more than 50%)
[1]
  Test H control value (anthracnose on cucumber): L (L shows the control value of 50% or less)
Phytophthora infestans
  Test F control value (late blight on tomato): L (L shows the control value of 50% or less)

## O=c1c(Cl)cc(-c2ccsc2Cl)c(-c2c(F)cccc2F)n1CC(F)F [Compound 404]
Magnaporthe grisea
  Test A control value (blast on rice): H (H shows the control value more than 50%)
[1]
  Test H control value (anthracnose on cucumber): L (L shows the control value of 50% or less)
Phytophthora infestans
  Test F control value (late blight on tomato): L (L shows the control value of 50% or less)

## Cc1cnn(-c2ccc(=O)n(CC(F)F)c2-c2ccccc2Br)c1 [Compound 405]
Magnaporthe grisea
  Test A control value (blast on rice): L (L shows the control value of 50% or less)
[1]
  Test H control value (anthracnose on cucumber): L (L shows the control value of 50% or less)
Phytophthora infestans
  Test F control value (late blight on tomato): L (L shows the control value of 50% or less)

## Cc1cnn(-c2ccc(=O)n(C)c2-c2ccc(F)cc2F)c1 [Compound 406]
Magnaporthe grisea
  Test A control value (blast on rice): L (L shows the control value of 50% or less)
[1]
  Test H control value (anthracnose on cucumber): L (L shows the control value of 50% or less)
Phytophthora infestans
  Test F control value (late blight on tomato): L (L shows the control value of 50% or less)

## Cc1cnn(-c2cc(Cl)c(=O)n(CC(F)F)c2-c2ccccc2Br)c1Cl [Compound 407]
Magnaporthe grisea
  Test A control value (blast on rice): H (H shows the control value more than 50%)
[1]
  Test H control value (anthracnose on cucumber): H (H shows the control value more than 50%)
Phytophthora infestans
  Test F control value (late blight on tomato): L (L shows the control value of 50% or less)

## Cc1cnn(-c2cc(Br)c(=O)n(CC(F)F)c2-c2ccccc2Br)c1 [Compound 408]
Magnaporthe grisea
  Test A control value (blast on rice): H (H shows the control value more than 50%)
[1]
  Test H control value (anthracnose on cucumber): L (L shows the control value of 50% or less)
Phytophthora infestans
  Test F control value (late blight on tomato): L (L shows the control value of 50% or less)

## Cc1cnn(-c2cc(Br)c(=O)n(CC(F)F)c2-c2ccccc2Br)c1Cl [Compound 409]
Magnaporthe grisea
  Test A control value (blast on rice): H (H shows the control value more than 50%)
[1]
  Test H control value (anthracnose on cucumber): L (L shows the control value of 50% or less)
Phytophthora infestans
  Test F control value (late blight on tomato): L (L shows the control value of 50% or less)

## Cc1cnn(-c2cc(Cl)c(=O)n(C)c2-c2ccc(F)cc2F)c1Cl [Compound 410]
Magnaporthe grisea
  Test A control value (blast on rice): H (H shows the control value more than 50%)
[1]
  Test H control value (anthracnose on cucumber): H (H shows the control value more than 50%)
Phytophthora infestans
  Test F control value (late blight on tomato): L (L shows the control value of 50% or less)
